# This is one part of the list.
# Test system: Pseudomonas aeruginosa PA14 dppA1-A5 penta deletion mutant
# Test: respiration area under curve with compound as sole nitrogen source, 24 h (OmniLog AUC (arbitrary units)); higher = more respiration / better utilisation as nitrogen source; extreme values may be limits of the assay
# Settings: plate: PM8
# Method: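 Biolog Phenotype MicroArray plates PM6-PM8: each di/tripeptide is the sole nitrogen source. Tetrazolium reduction was read in the OmniLog for 24 h at 37°C and summarised as area under the respiration curve (arbitrary units). Values below 2000 count as no respiration.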
row,Compound,respiration area under curve
1,CC(C)C[C@H](NC(=O)CNC(=O)CN)C(=O)O,inactive: 397
2,CC(C)C[C@@H](NC(=O)CNC(=O)CN)C(=O)O,inactive: 19.7
